# In the supplement of paper PMC10338343:
# ± gives the standard deviation. The entries are a selection whose mix differs from that of the whole data set.
# Tested on: MIWI (PIWIL1) piRISC loaded with piRNA #1 (30 nt)
# Test: pre-steady-state target cleavage rate (min^-1); MIWI and MILI are mouse PIWI proteins and EfPiwi is from a freshwater sponge; tags in brackets are library labels; higher = faster piRNA-guided slicing of the target
# Conditions: guide: piRNA #1 5'p-UGAGGUAGUAGGUUGUAUAGUAUCCAGAGG; auxiliary factor: 500 nM mouse GTSF1
# How it was run: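 A burst-and-steady-state fit was used to obtain the pre-steady-state cleavage rate. The input data were sequencing reads of uncleaved targets, normalised to depth and to weakly complementary targets, from a […] transcribed, DNA-blocked target RNA library mixed with 1 nM active affinity-purified piRISC holding one synthetic guide, with or without 500 nM GTSF1 partner protein, in HEPES–potassium acetate buffer at 33 °C for 0–8 or 0–960 min. Three trials were pooled and k3 was capped at 0.0001 min^-1.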
# 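Note: 1 nM active piRISC with 0.1 nM target library at 33 °C single turnover.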
row,Sequence,pre-steady-state target cleavage rate
1,GGAGACCAUACUAUACAACCUCCUACCUCA,0.917 ± 0.045
2,GGAGUGGAUACUAUACAUCCAACUACCUCA,0.0901 ± 0.011
3,GGAGACCAUACUAUACAACCUAGAACCUCA,0.0693 ± 0.016
4,GGAGACGAUACUAUACAAGCUACUACCUGA,0.813 ± 0.042
5,GGACUGGAUACUAAACAACCUACUUCCUCA,0.0147 ± 0.0032
6,GCUCUGGAUAGUAUACAUCCUACUACCUCA,1.18 ± 0.065
7,GGAGUGGAUACUAUACAACCUAUUACCUCA,0.965 ± 0.067
8,GGAGAGGAUACUAUACAACCUACUUCCACA,0.0106 ± 0.0048
9,GGAGAGGAUAGCUAUACAACCUACUACCUCA,0.179 ± 0.018
10,GGAGACCUUACUAUACAACCUACAACGUCA,0.288 ± 0.046
11,CCUCUGGGAUACUAUACAACCUACUACCUCA,1.9 ± 0.1
12,GGAGACCUUACUAUACAACCUACUAGGACA,0.0569 ± 0.018
13,GGAGACGAUACUAUACAACCUACUACCUCU [g2:g24:cont:t1U],1.84 ± 0.12
14,GGAGUGGAUACUAUACAACCUACUACACUCA,0.602 ± 0.088
15,GGAGACCUAACUAUACAACCUACUACCUGA,0.595 ± 0.081
16,GGUCUGGAUACUAUUCAACCUACUACCUCA,1.7 ± 0.11
17,GGAGACCAUACUAUACAACGUUCUACCUCA,0.0192 ± 0.0032
18,GGAGAGGAUACUAUACAACCUACUACCAUCA,0.303 ± 0.025
19,GGAGUGGAUACAUACAACCUACUACCUCA,1.15 ± 0.091
20,GGUCUGGAUACUAUACAACGAUCUACCUCA,< 0.0001
